Assay results reported in patent US20190055314A1 (ADAGENE, published 2019).

What was measured:
Hu_CRD1-CRD2-CRD3 = target: T1, Hu_CRD1-CRD2-CRD3 (human, UniProt Q07011 24-118, limits assumed); assay: flow cytometry, yeast display [Cont.]
T1 construct: also called three CRD units (CRD1-CRD2-CRD3) of human CD137

Hu_CRD2-CRD3-CRD4 = target: T2, Hu_CRD2-CRD3-CRD4 (human, UniProt Q07011 46-159, limits assumed); assay: flow cytometry, yeast display [Cont.]
T2 construct: also called three CRD units (CRD2-CRD3-CRD4) of human CD137

Hu_CRD3-CRD4 = target: T3, Hu_CRD3-CRD4 (human, UniProt Q07011 87-159, limits assumed); assay: flow cytometry, yeast display [Cont.]
T3 construct: also called two CRD units (CRD3-CRD4) of human CD137

Hu_CRD3 = target: T4, Hu_CRD3 (human, limits assumed); assay: flow cytometry, yeast display [Cont.]
T4 construct: also called human CD137 CRD3
T4 chain: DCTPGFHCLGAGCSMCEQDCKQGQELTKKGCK

[1] = target: T5, purified C1q component of the human complement (human, UniProt P02745; P02746; P02747); assay: ELISA, direct binding of antibody to purified human complement C1q, A450
T5 construct: Purified from complement; also called human complement C1q component

CD95 = target: T6, CD95; assay: flow cytometry, HEK293F cells expressing the receptor, antibody 100 nM [Cont.]
T6 chain: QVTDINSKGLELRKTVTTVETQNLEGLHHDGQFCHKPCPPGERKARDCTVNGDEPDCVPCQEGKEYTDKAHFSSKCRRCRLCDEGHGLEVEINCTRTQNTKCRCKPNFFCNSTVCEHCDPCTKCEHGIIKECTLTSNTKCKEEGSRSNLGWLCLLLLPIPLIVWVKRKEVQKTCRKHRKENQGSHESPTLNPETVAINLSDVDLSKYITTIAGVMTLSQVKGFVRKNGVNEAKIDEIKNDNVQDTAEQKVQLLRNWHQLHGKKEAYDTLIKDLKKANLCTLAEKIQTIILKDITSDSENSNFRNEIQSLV

CD120a = target: T7, CD120a; assay: as above
T7 chain: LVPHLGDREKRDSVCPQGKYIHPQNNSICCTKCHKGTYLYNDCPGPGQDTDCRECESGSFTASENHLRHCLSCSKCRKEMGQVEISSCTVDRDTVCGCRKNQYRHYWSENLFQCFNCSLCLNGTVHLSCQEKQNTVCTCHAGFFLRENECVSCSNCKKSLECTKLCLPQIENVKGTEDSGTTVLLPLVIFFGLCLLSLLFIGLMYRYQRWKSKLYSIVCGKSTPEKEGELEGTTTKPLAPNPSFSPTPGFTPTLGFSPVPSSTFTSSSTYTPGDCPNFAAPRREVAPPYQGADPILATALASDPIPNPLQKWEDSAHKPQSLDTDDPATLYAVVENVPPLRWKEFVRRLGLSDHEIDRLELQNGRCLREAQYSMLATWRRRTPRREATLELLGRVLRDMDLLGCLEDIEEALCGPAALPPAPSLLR

[2] = target: T8, full-length mouse CD137 on the cell surface (mouse, UniProt P20334 24-178); assay: flow cytometry, yeast display
T8 sequence: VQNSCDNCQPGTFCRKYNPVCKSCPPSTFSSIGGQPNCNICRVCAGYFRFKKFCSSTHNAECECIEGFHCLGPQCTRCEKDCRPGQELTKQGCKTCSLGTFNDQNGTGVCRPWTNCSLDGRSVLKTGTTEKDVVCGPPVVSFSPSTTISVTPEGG

Hu_CRD2 = target: T9, Hu_CRD2 (human, UniProt Q07011 46-86, limits assumed); assay: flow cytometry, yeast display
T9 construct: also called human CD137 CRD2
T9 chain: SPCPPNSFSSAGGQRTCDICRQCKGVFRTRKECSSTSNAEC

[3] = target: T10, full-length human CD137 on the cell surface (human, UniProt Q07011 18-255); assay: flow cytometry, yeast display
T10 construct: also called Human WT

Hu_N83A = target: T11, Hu_N83A (human, UniProt Q07011 18-255); assay: flow cytometry, HEK293F
T11 construct: On HEK293F; also called human CD137 N83A

Hu_T35A = target: T12, Hu_T35A (human, UniProt Q07011 18-255); assay: flow cytometry, HEK293F
T12 construct: On HEK293F; also called human CD137 T35A

Hu_F53A = target: T13, Hu_F53A (human, UniProt Q07011 18-255); assay: flow cytometry, HEK293F
T13 construct: On HEK293F; also called human CD137 F53A

Hu_F92A = target: T14, Hu_F92A (human, UniProt Q07011 18-255); assay: flow cytometry, HEK293F
T14 construct: On HEK293F; also called human CD137 F92A

[4] = target: T10, full-length human CD137 on the cell …; assay: cell-based or functional assay
[5] = target: T8, full-length mouse CD137 on the cell …; assay: flow cytometry, HEK293F
[6] = target: T10, full-length human CD137 on the cell …; assay: flow cytometry, HEK293F
[7] = target: T15, full-length monkey CD137 on the cell surface (cynomolgus monkey, UniProt Q07011 24-179 (human entry)); assay: flow cytometry, HEK293F
T15 chain: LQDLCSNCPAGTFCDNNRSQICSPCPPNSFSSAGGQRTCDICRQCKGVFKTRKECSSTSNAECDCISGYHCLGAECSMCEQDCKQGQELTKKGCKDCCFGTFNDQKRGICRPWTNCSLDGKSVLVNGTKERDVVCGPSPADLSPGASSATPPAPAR

[8] = target: T15, full-length monkey CD137 on the cell …; assay: flow cytometry, PMA/ionomycin-activated monkey T cells, antibody 100 nM

Sequence of Hu_F92A (Q07011 18-255 F92A): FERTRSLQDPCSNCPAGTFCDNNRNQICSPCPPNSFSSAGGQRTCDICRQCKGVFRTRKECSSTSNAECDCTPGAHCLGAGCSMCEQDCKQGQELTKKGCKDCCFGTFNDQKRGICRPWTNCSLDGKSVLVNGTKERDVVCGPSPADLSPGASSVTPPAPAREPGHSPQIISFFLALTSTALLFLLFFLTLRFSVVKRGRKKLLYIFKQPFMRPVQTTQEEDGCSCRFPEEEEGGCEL
T5 sequence (P02745 23-245, chain 1 of 3): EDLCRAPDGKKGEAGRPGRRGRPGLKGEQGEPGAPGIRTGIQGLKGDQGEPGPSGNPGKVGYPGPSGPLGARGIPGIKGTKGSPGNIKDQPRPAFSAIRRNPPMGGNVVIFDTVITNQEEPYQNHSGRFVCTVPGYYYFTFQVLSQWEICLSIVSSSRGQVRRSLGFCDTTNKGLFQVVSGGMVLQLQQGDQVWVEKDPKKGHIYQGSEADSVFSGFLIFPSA
T5 sequence (P02746 28-253, chain 2 of 3, further chain): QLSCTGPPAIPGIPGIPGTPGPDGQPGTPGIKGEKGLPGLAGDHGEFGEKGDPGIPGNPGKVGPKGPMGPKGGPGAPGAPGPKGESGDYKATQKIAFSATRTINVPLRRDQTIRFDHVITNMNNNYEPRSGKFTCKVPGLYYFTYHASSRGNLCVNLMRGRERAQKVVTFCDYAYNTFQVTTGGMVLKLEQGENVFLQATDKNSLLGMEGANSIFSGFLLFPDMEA
T5 sequence (P02747 29-245, chain 3 of 3, further chain): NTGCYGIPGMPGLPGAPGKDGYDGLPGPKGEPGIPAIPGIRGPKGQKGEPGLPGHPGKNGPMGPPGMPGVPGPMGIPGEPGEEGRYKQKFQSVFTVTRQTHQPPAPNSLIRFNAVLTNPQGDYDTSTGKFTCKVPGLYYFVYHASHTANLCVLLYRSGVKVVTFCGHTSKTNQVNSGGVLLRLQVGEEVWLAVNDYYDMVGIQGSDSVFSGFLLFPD
Sequence of Hu_T35A (Q07011 18-255 T35A): as the sequence (Q07011 18-255 F92A) above, with T18A, A75F counted along it
Sequence of Hu_F53A (Q07011 18-255 F53A): as the sequence (Q07011 18-255 F92A) above, with F36A, A75F counted along it
Sequence of Hu_N83A (Q07011 18-255 N83A): as the sequence (Q07011 18-255 F92A) above, with N66A, A75F counted along it

B1: AG10131 (antibody, human IgG4 S228P, kappa)
heavy: EVQLVESGGGLVQPGGSLRLSCAASGFSLSTGGVGVGWIRQAPGKGLEWLALIDWADDKYYSPSLKSRLTISRDNSKNTLYLQLNSLRAEDTAVYYCARGGSDTVIGDWFAYWGQGTLVTVSSASTKGPSVFPLAPCSRSTSESTAALGCLVKDYFPEPVTVSWNSGALTSGVHTFPAVLQSSGLYSLSSVVTVPSSSLGTKTYTCNVDHKPSNTKVDKRV[human IgG4 Fc with S228P (EU numbers) skipped]
light: DIQLTQSPSSLSASVGDRVTITCRASQSIGSYLAWYQQKPGKAPKLLIYDASNLETGVPSRFSGSGSGTDFTLTISSLQPEDFATYYCQQGYYLWTFGQGTKVEIKRTVAAPSVFIFPPSDEQLKSGTASVVCLLNNFYPREAKVQWKVDNALQSGNSQESVTEQDSKDSTYSLSSTLTLSKADYEKHKVYACEVTHQGLSSPVTKSFNRGEC
notes: also called AG10131-IgG4
% in upper right quadrant (Hu_CRD1-CRD2-CRD3): 55.7% | Mean (Hu_CRD1-CRD2-CRD3): 17500 | % in upper right quadrant (Hu_CRD2-CRD3-CRD4): 0.75% | Mean (Hu_CRD2-CRD3-CRD4): 8000 | % in upper right quadrant (Hu_CRD3-CRD4): 0.096% | Mean (Hu_CRD3-CRD4): 25400 | % in upper right quadrant (Hu_CRD3): 0.087% | Mean (Hu_CRD3): 13300 | binding result [1]: no binding (tested: Log(Ab) 1.3 [nM], about 20 nM) | Mean (CD95): 13100 | Mean (CD120a): 8290 | % in upper right quadrant [2]: 35.2% | Mean [2]: 7160 | % in upper right quadrant (Hu_CRD2): 0.21% | Mean (Hu_CRD2): 14400 | % in upper right quadrant [3]: 32.1% | Mean [3]: 64000 | binding result (Hu_N83A): no binding | binding result (Hu_T35A): no binding | binding result (Hu_F53A): no binding | binding result (Hu_F92A): no binding | NFκB reporter: EC50 (nM) With Cross-Linker [4]: 1.67 nM | Kd [5]: 49.4 nM | Kd [6]: 1.3 nM | Kd [7]: 1.2 nM | % of cells positive for antibody binding [8]: 18.1%
